Source: PubChem BioAssay AID743262 (National Center for Advancing Translational Sciences (NCATS), 2014)
The campaign covered roughly 1,300 compounds. About 25 (2%) were called active. Another 9% or so got no clear call; they are omitted. The call rests on the fitted dose curve; in most records, active means well fitted activation curve with a large enough effect; inconclusive means small, poorly fitted or top-dose-only effect; inactive means flat fitted curve, though single readings scatter. The list shows a part of the results.

biological target: Glucagon-like peptide 1 receptor (Homo sapiens) (UniProt P43220); assay: qHTS of GLP-1 Receptor Agonists: Hit Validation; settings: HEK293 GLP-1R, cAMP-response luciferase, 4-6 h; series mostly up to 46.1 µM; activation: at the top concentration; further: % of control where 0% means no effect
Chain of UniProt P43220 (P43220 whole entry, looked up): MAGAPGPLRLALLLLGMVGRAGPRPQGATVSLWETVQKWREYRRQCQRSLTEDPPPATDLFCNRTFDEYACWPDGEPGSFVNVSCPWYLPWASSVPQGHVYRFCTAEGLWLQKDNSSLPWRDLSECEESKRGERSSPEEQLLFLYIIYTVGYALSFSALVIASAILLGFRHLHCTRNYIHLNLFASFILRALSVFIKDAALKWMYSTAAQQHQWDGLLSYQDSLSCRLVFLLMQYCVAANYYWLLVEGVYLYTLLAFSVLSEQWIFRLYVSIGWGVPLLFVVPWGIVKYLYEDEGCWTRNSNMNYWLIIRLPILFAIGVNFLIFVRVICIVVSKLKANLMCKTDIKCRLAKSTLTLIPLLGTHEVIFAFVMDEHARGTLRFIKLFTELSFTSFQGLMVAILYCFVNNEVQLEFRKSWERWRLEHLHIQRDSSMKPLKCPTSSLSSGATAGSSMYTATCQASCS
In short: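 HEK293 cells stably co-expressing a cAMP-responsive luciferase reporter and GLP-1R (hypersensitive receptor for weak agonists; wild-type line for confirmation) were plated 12 h at 37 °C, exposed to compound 4-6 h, then read by luminescence after 12 min detection reagent.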

activation, inactive:
COc1ccc(OC)c(C(=O)Nc2c(O)ccc3ccccc23)c1 3.74%
COc1ccc(Nc2nc(N)nc(CSC(=S)N3CCCCC3C)n2)cc1 (stereo not drawn) 6.7%
O=C1NC(c2cccc3ccccc23)Nc2ccccc21 (stereo not drawn) 6.2%
COC(=O)c1ccc(COC(=O)c2ccc(SC)cc2OC)cc1 3.19%
CCc1cc2c(CN3CCN(Cc4ccccc4)CC3)cc(=O)oc2cc1O -1.22%
CCN(CC)S(=O)(=O)c1cc(NC(=O)c2ccccc2OCc2c(C)noc2C)ccc1C 1.93%
COc1ccc(S(=O)(=O)N(C)C)cc1NC(=O)c1ccc(OCC(=O)N2CCOCC2)c(OC)c1 0.301%
CCn1c(SCC(=O)OC)nc2sc3c(c2c1=O)CC(C)(C)OC3 6.2%
CCC1(CC)Cc2ccccc2-c2nc(CN(C)C)[nH]c(=O)c21 2.97%
CCOC(=O)CN1C(=O)S/C(=C/c2ccc(OCc3ccc(C(=O)O)cc3)cc2)C1=O -1.18%
Cc1nn(Cc2ccccc2)c(Cl)c1C(=O)OC(C)C#N (stereo not drawn) 6.68%
Cc1c(C)n(Cc2ccccc2)c2ccc(C(=O)OCCCN(C)C)cc12 8.23%
COC(=O)C(CN)c1c[nH]c2ccc(OC)cc12 (stereo not drawn) 2.04%
Cc1csc(NC(=O)CCN2C(=O)c3ccccc3S2(=O)=O)n1 -0.742%
CC(NC(=O)CN1C(=O)COc2ccccc21)c1ccccc1 (stereo not drawn) 22.2%
CC(C)Nc1nc(Nc2ccccc2Cl)c2sccc2n1 5.71%
Nc1nc(NCCCN2CCOCC2)nc(Nc2cccc(Cl)c2)c1[N+](=O)[O-] 4.41%
O=C(/C=C\c1ccc(-c2cccc([N+](=O)[O-])c2)o1)N1CCOCC1 14.4%
Cc1ccc(C)c(Nc2c([N+](=O)[O-])ccc3nonc23)c1 23.3%
CCOC(=O)c1c(-c2ccc(F)cc2)csc1/N=C/N(C)C -0.16%
O=c1c2ccccc2oc2cc(NCCCN3CCOCC3)ccc12 2.1%
C=Cc1ccc(Cn2nc(-c3ccc(C)cc3)ccc2=O)cc1 6.93%
CCCCNc1c(-c2ccc(SC(C)CC)cc2)nc2ccc(Cl)cn12 (stereo not drawn) 0.404%
Nc1ncnc2c1ncn2[C@@H]1O[C@H](COP(=O)(O)OP(=O)(O)OP(=O)(O)O)[C@@H](O)[C@H]1O -0.704%
CSc1nc(C)c2c(n1)N(c1ccc(O)cc1)CC2 4.44%
N#CC(c1ccncc1)(c1ncc(C(F)(F)F)cc1Cl)N1CCOCC1 (stereo not drawn) 1.91%
c1ccc2c(c1)CCN(c1nc3ccccc3n3cnnc13)C2 15%
CC1CCCc2sc3nc(NCc4ccco4)n4ncnc4c3c21 (stereo not drawn) 26%
